Laboratory results reported in ChEMBL document CHEMBL1201862, “PubChem BioAssay data set” (2004).

Each compound was assayed on NCI-H322M (assay: growth of human tumour cells (NCI), 48 h).
For O=NC1c2cccc3cccc(c23)C1N=O (stereo not given), the GI50 was inactive: 11.1 µM.
For O=NN1C(c2ccccc2)CNC(=O)CC1c1ccccc1 (stereo not given), the GI50 was inactive: 99.5 µM.
O=C1CSC(c2ccc(Cl)cc2)N1c1ccc(-c2ccc(-n3c(-c4ccccc4)nc4ccccc4c3=O)cc2)cc1 (stereo not given) was tested, and the GI50 was inactive: > 100 µM.
For O=Cc1[nH]c(=O)[nH]c(=O)c1CCl, the GI50 was inactive: > 100 µM.
With CCCn1cc2c(O)nc(SC)nc2n1 the GI50 was inactive: 50.5 µM.
In the case of CCN(C(=O)/C=C/c1ccco1)c1ccccc1, the GI50 was inactive: > 100 µM.
COc1cc2c(cc1O)NC(=O)[C@@H]1C[C@@H](O)CN1C2=O was tested, and the GI50 was inactive: > 100 µM.
In the case of Cc1ccc(/C=C2\CCCC(CN3CCCCC3)C2=O)cc1 (stereo not given), the GI50 was inactive: 16.1 µM.
In the case of CSCC[C@@H](NC(=O)[C@H](CC(C)C)NC(=O)C(Cc1cnc[nH]1)NC(=O)CNC(=O)[C@@H](NC(=O)[C@H](C)NC(=O)[C@H](Cc1c[nH]c2ccccc12)NC(=O)[C@H](CCC(N)=O)NC(=O)[C@@H](N)CC(N)=O)C(C)C)C(N)=O (stereo not given in full), the GI50 was inactive: > 100 µM.
With Nc1ncnc2c1ncn2C1C=C(CO)C(O)C1O (stereo not given) the GI50 was inactive: 6.44 µM.
O=C1c2cc3c(cc2CC12Cc1ccc4c(c1C2=O)CCCC4)CCCC3 (stereo not given) was tested, and the GI50 was inactive: > 100 µM.
In the case of CCOC(=O)C1C(c2ccc(OC)cc2)c2c(n[nH]c2O)CC1(O)OCC (stereo not given), the GI50 was inactive: > 100 µM.
O=C1Nc2ccc([N+](=O)[O-])cc2/C1=N/NC(=S)Nc1ccccc1 was tested, and the GI50 was inactive: 5.68 µM.
For O=C(O)C(O)C(O)C(O)C(O)c1nc2ccccc2s1 (stereo not given), the GI50 was inactive: 20.6 µM.
For CC12CC3OC(=O)C1COC14OC5(C2C1=O)C(O)(CCC1C4CC(O)C2(O)CC=CC(=O)C12C)C(=O)OC35C (stereo not given), the GI50 was inactive: > 100 µM.
COc1ccc(Nc2nc(C#N)c(N)s2)cc1 was tested, and the GI50 was inactive: > 100 µM.
With CCOC(=O)c1c(C)n(Cc2ccc(Cl)cc2Cl)c2c1cc(O)c1[nH]c3c(c12)CCCC3 the GI50 was inactive: 19 µM.
In the case of CCCCCCCCC/C=C1\CC(CO)(COC(=O)c2ccccc2)OC1=O (stereo not given), the GI50 was inactive: 27.7 µM.
With COc1cc(OC)c(-n2[nH]c(=O)n(C)c2=O)c(OC)c1 the GI50 was inactive: > 100 µM.
With C=C1C(=O)O[C@H]2C/C(C)=C/CC/C(C)=C/CC[C@@](C)(O)[C@@H](I)C[C@@H]12 the GI50 was inactive: 13.3 µM.
In the case of Cc1c(C)c2c(c(N)c1C#N)C(=O)N(Cc1ccc(S(N)(=O)=O)cc1)C2=O, the GI50 was inactive: > 100 µM.
For COC[C@H](C)/N=C/N1CCc2ccccc2C1(Cc1ccccc1)Cc1ccccc1, the GI50 was inactive: 22.7 µM.
In the case of CC(=O)SC(SC(C)=O)SC(C)=O, the GI50 was inactive: > 100 µM.
Cc1cc(N)c2ccccc2[n+]1CCCCCCCCCC[n+]1c(C)cc(N)c2ccccc21 [DEQUALINIUM CHLORIDE] was tested, and the GI50 was inactive: 3.07 µM.
For CO[C@H]1[C@@H](O)[C@@H](O)O[C@@H](O[C@H]2CC[C@@]3(C)[C@H](CC[C@@H]4[C@@H]3[C@H](O)C[C@]3(C)[C@@H](C5=CC(=O)OC5)CC[C@]43O)C2)[C@@H]1O, the GI50 was active: 0.258 µM.
In the case of O=C(Nc1sccc1S(=O)(=O)c1ccccc1)c1ccccc1, the GI50 was inactive: > 100 µM.
For CC(C)(C)OC(=O)NC(CO)c1cccc(OCc2ccccc2)c1 (stereo not given), the GI50 was inactive: > 100 µM.
CNC(=O)Nn1c(SC)nc2ccccc21 was tested, and the GI50 was inactive: > 100 µM.
For FC(F)(F)c1ccc2c(c1)nc(-c1ccccc1)n2CC1CCCN2CCCCC12 (stereo not given), the GI50 was inactive: 21.1 µM.
In the case of C/C(=C\c1ccccc1)C(O)S(=O)(=O)O (stereo not given), the GI50 was inactive: > 100 µM.
In the case of N#CC(NC12CC3CC(CC(C3)C1)C2)c1ccccc1C(F)(F)F (stereo not given), the GI50 was inactive: > 100 µM.
In the case of CC(=O)OCC1OC(OC(C)=O)C(NC#N)C(OC(C)=O)C1OC(C)=O (stereo not given), the GI50 was inactive: > 100 µM.
With O=C1C=CC(O)(C#CCO)C=C1 the GI50 was inactive: 20.2 µM.
CCN1C(=S)n2cccc2C1CC(=O)c1ccc(Cl)cc1 (stereo not given) was tested, and the GI50 was inactive: > 100 µM.
In the case of O=C1c2ccccc2C(=O)c2nn(N=P(CP(=Nn3nc4c(n3)C(=O)c3ccccc3C4=O)(c3ccccc3)c3ccccc3)(c3ccccc3)c3ccccc3)nc21, the GI50 was inactive: > 100 µM.
In the case of O=C(CCc1cc(-c2ccco2)n(-c2ccc([N+](=O)[O-])cc2[N+](=O)[O-])n1)Nc1ccccc1, the GI50 was inactive: > 100 µM.
c1ccc(-c2cc(-c3cccs3)c(-c3cccs3)o2)cc1 was tested, and the GI50 was inactive: > 100 µM.
O=C1CC(C2(O)C(=O)Nc3ccc([N+](=O)[O-])cc32)c2ccccc21 (stereo not given) was tested, and the GI50 was inactive: 46.2 µM.
O=C(c1ccco1)N(C(=S)N1CCN(c2ccccc2)CC1)c1ccccc1 was tested, and the GI50 was inactive: > 100 µM.
In the case of Cc1ccc(C)c(C(=N)c2ccccc2Cc2ccccc2)c1, the GI50 was inactive: 28.4 µM.
Cn1c2ccccc2c(=S)c2cc(NC(=O)CCCCC(=O)Nc3ccc4c(c3)c(=S)c3ccccc3n4C)ccc21 was tested, and the GI50 was inactive: > 100 µM.
With C/C(=N\c1cc(Cl)cc(Cl)c1)c1ccncc1 the GI50 was inactive: 1.89 µM.
For CCN1CCC(O)(/C=C/c2cccc(C)c2)C(C(=O)/C=C/c2cccc(C)c2)C1 (stereo not given), the GI50 was inactive: 4 µM.
With CCOC(=O)C(=O)Nc1c(F)cc(F)cc1Br the GI50 was inactive: > 100 µM.
COc1ccc2c(c1)C1C(CO2)C(c2ccccc2)=NN1c1ccccc1 (stereo not given) was tested, and the GI50 was inactive: > 100 µM.

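Where inhibition never reached the appropriate level, the endpoint shown equals the highest concentration tested. Otherwise, values were interpolated linearly from a five-concentration, 48-hour dose response in 96-well plates. GI50 marks 50% less growth.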 Active and inactive are the calls of the source. Rule as the data show it: active = GI50 up to about 1.1 µM and inactive = higher.
